Results reported in the supplement of paper PMC3334620.
The full ranking holds about 33,000 sequences; the median of “E-score (-0.5 to 0.5)” is about -0.017, and the highest 2% start at about 0.3. The list shows a part of the results.

target: T1, Sut1 (UniProt P53032); assay: PBM E-score (8-mer binding enrichment) (E-score (-0.5 to 0.5)); higher = stronger / more preferred TF binding; most listed sequences are background and not binding sites; conditions: protein concentration: 200 nM; construct: GST-full length
T1 sequence: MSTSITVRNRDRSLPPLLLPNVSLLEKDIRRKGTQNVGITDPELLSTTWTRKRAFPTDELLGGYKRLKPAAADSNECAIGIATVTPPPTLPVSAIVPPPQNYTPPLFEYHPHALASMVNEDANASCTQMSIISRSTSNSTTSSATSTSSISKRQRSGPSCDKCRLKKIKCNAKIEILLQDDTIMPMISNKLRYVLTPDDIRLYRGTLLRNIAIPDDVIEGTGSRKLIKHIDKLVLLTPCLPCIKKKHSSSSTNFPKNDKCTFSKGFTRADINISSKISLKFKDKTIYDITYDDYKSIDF
How it was run: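 Using PURExpress in vitro transcription/translation, GST-tagged yeast transcription factors were made in full-length or DNA-binding-domain form. These were applied at about 100-200 nM to double-stranded universal all-10-mer Agilent arrays, and bound protein was detected with fluorescent anti-GST. Scans were normalised with masliner before the Universal PBM Analysis Suite assigned E-scores to ungapped eight-base words pooled with their reverse complements.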

Sequence | PBM E-score
ACGTTTCG | 0.0915
ACAGATAT | 0.0244
AAACTAAG | 0.242
ATCATCAT | 0.0766
GAATAGGA | 0.128
GTTCGCCA | -0.14
AAAGGACT | -0.054
GCCCGCAA | -0.0979
ATGTAAAC | 0.147
ACTCCCGC | -0.0488
ACACGCCA | -0.133
CGGAGCAA | 0.311
CTCTTACA | 0.0424
CGGATCTA | 0.0914
ATTGGCGC | -0.145
TCATTTCA | 0.164
CAAATGTC | -0.117
CTGAGAAC | -0.162
AAAGGGCC | -0.16
CTGGGAAG | -0.155
CACTCGAC | -0.0164
GGACAAAA | 0.274
CGGCATTC | 0.0158
GGGGTATA | -0.201
AGCCCACA | -0.186

Sequence | PBM E-score
ACATGGAC | 0.0532
ATGCACCC | -0.0946
CTTCTGAA | -0.0253
CCGCGACG | -0.101
AAGTTAAA | 0.229
ATAGGTAG | -0.0143
ACATGGCG | -0.245
TAATCTCA | 0.116
GCTTGCAA | 0.123
ACGGGCTA | -0.104
ACGATAAG | 0.122
AATTCTAC | 0.157
CGGGACGA | -0.0871
ACTTAAGC | -0.0646
AAAAAGAG | 0.0874
AAGTCCAG | 0.0358
GCGAATAA | 0.0539
AGACCGAG | 0.128
GGAATGGA | -0.0245
CCAGGGCC | -0.371
CCTTCGAG | -0.047
GATTTTTA | 0.164
CCGGCGTA | 0.0295
GATAGCCC | -0.132
AACGTGCA | -0.0602

Sequence | PBM E-score
CATCTGGA | -0.15
ACGACTCT | -0.091
CGATCACC | 0.00494
CTGCGAAA | -0.0164
CTGTAGTA | 0.175
AGCTGACT | 0.0365
AGCACTAG | -0.0676
GCAGATAC | -0.0367
CTGATATA | 0.126
GTTCATCA | 0.0824
CCGGGTAA | 0.136
GACTACCA | 0.0405
CGAGCCCC | -0.0719
GAGGCTGC | -0.163
GAAGAATC | 0.0983
CTGTATCA | -0.196
AGTGGGAA | 0.0467
ATTGTTGG | 0.286
CAGTTCGA | 0.00658
CACTCTGA | -0.165
CCAATAGA | -0.0393
AACCGTGC | 0.0224
ACATTCTA | 0.0618
CGATACCA | -0.0261
GGGTATAA | 0.0427

Sequence | PBM E-score
CTGACTAA | 0.182
CGGTAGCC | 0.00984
GGATATCC | 0.168
AGACGACT | -0.0824
GAATATCC | 0.0832
CACATTAG | -0.0351
ATTGCTAA | 0.142
CGGAACTA | 0.229
AGCAGTAG | -0.205
CCGCCTAG | -0.166
AATGGTCC | 0.0931
GTAGCTAC | -0.0627
AGACCAGA | -0.0941
AAGCGCAA | -0.0186
AGGGAGGA | -0.319
ACTGTGGA | -0.0692
GATCCGCC | -0.0664
GTCGAGCA | -0.255
CGCCTGAC | -0.036
ATTCCCTG | -0.109
ATCTGCGA | -0.209
CCCGATCG | -0.0909
GAACTGCC | -0.177
ATGGAGTC | 0.0281
GACCGATA | -0.00646

Sequence | PBM E-score
CGGTGGAA | 0.0654
AGGGAAAG | -0.176
AACTTAAG | 0.132
CAAGTCAG | -0.0539
GAAGATAA | 0.214
ACGCAACT | 0.104
CTTGGATC | 0.00255
ACAAGAGA | -0.0728
AATGACAG | 0.00358
GACTTGCC | -0.27
ATACATTC | 0.11
CTAGGCAA | -0.15
CATCACGA | -0.198
CTCTGTCC | -0.104
CCCCTGCA | -0.29
GACATCAC | -0.0298
CAGTGGGC | -0.194
CAATGGCC | -0.182
CGGGTGCA | -0.0548
GTAACTAA | 0.144
AATGACTC | -0.0398
CATTGGAG | -0.0942
CAAACGCA | -0.227
CGGTGCTA | -0.0351
CATCTAAC | 0.00013

Sequence | PBM E-score
AGCCCGGA | 0.341
CATATTGA | 0.0287
ACGGACCC | 0.0412
AGAAAACT | 0.0795
GCGAACCC | -0.0462
ACGTAAAT | 0.0259
AGAGACAC | -0.0557
CTGGGTCC | -0.192
CCATGTCC | -0.051
CGAACGTA | 0.0459
GGCCGCAA | -0.262
AATGTCGT | 0.0765
AGCGCGTC | -0.218
ACACTAAA | 0.243
GCAGCACC | 0.0294
CGTTAGAA | 0.111
ACTTCCTA | 0.0153
GCAATTGC | -0.0673
AAAGTCTC | -0.0767
TGATTTAA | 0.3
CCACGTGA | -0.253
ACAGCGAG | -0.145
CAACAAGC | -0.0335
ACCGAAAA | 0.196
ATATAGGC | 0.0982

Sequence | PBM E-score
GGGTGCTA | -0.132
GGGGCTAA | -0.208
AACCTTAA | 0.272
GTCAGCCA | -0.157
AGTGCTAA | 0.0673
TACCTCCA | -0.0864
ACACTACC | -0.23
GCGCGGTA | -0.00738
AGGGATTG | -0.0188
CCTATTTC | -0.00185
CGTACTCC | 0.348
CCTGTATA | 0.0144
ACATTAAA | 0.259
ATTTGGAG | -0.031
GAGACGTA | -0.0178
ACCCTATC | 0.0201
TCTGAGCA | -0.0691
AAGCTTAG | 0.0746
CGACAGGA | 0.0329
AGTCATAT | 0.108
ACCGATCG | 0.0856
CATGCACA | 0.0355
